Experimental data as given in the supplement of paper PMC3334620.
In all, about 33,000 sequences were measured (“E-score (-0.5 to 0.5)”: median about -0.017, highest 2% from about 0.3 on). Some of the results follow.

Target: T1, Sut1 (UniProt P53032)
T1 sequence: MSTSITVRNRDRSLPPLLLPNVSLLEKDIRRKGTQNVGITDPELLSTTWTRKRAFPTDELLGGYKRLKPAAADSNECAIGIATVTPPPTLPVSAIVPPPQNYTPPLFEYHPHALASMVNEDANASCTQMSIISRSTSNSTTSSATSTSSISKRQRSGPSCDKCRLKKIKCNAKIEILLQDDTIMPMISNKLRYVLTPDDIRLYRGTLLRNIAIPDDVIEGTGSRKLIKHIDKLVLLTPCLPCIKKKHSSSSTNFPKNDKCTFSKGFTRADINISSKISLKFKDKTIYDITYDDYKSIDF
Experiment: PBM E-score (8-mer binding enrichment) (E-score (-0.5 to 0.5)); higher = stronger / more preferred TF binding; most listed sequences are background and not binding sites
Conditions: protein concentration: 200 nM; construct: GST-full length
Procedure: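 Universal 'all 10-mer' protein binding microarrays (Agilent AMADID 015681) probed with GST-tagged S. cerevisiae TFs (full-length or DBD) made by in vitro transcription/translation (PURExpress), about 100-200 nM. Bound TF was detected with fluorescent anti-GST. Each ungapped 8-mer (which stands for itself and its reverse complement) is scored by the PBM enrichment score (E-score), a modified Wilcoxon-Mann-Whitney statistic from -0.5 to +0.5, computed with the Universal PBM Analysis Suite. Scale: above 0.35 generally sequence-specific binding.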

| Sequence | PBM E-score |
| --- | --- |
| GGTTTTTA | 0.12 |
| AGTTGGGC | 0.042 |
| GACCGAAA | 0.172 |
| ACCGTAAG | 0.113 |
| CCGCGGGA | 0.0493 |
| ATGGGCTA | -0.0597 |
| CCGGAGGA | 0.259 |
| ACTAACTA | 0.172 |
| CAAAAGTA | 0.197 |
| AAGTCTCG | -0.138 |
| TCTTTTAA | 0.205 |
| CTCTCCAA | 0.0481 |
| CCGTTGAG | 0.116 |
| ATGGCACA | -0.0342 |
| TCATGCCA | -0.0536 |
| CTATGGCA | -0.254 |
| AGGCGGTG | -0.292 |
| CAGCCCTC | -0.298 |
| CCTCTGCA | -0.0906 |
| ACTAGCCG | -0.192 |
| CCAACCAA | -0.152 |
| ACACGGCC | -0.203 |
| CCTACGAC | -0.124 |
| CGCTGAGC | -0.198 |
| TCGTAAAA | 0.216 |

| Sequence | PBM E-score |
| --- | --- |
| ATAATTTG | 0.249 |
| ACGCCACC | -0.251 |
| CGATTATC | 0.0561 |
| AAACAACA | 0.167 |
| TCTGAAGA | -0.183 |
| TCTCTGCA | -0.223 |
| AAGTTGTA | 0.0914 |
| CGGGGATA | 0.157 |
| CCACATCG | -0.108 |
| AAGGGTCG | 0.0244 |
| GGCTGTAA | -0.255 |
| AGGCATTA | -0.116 |
| CATCGACG | -0.192 |
| CGCATCCA | -0.182 |
| GTAGTGAC | 0.14 |
| GCTCGATA | -0.105 |
| AGATCTCA | 0.0178 |
| CGGGGTCC | 0.0747 |
| GAGAACGA | 0.0305 |
| GCCGTTGA | 0.0889 |
| GGCCATGA | -0.0124 |
| GTTGTACA | 0.122 |
| GCTTATGA | -0.0528 |
| AGGTGTTA | -0.0885 |
| ACTGTCAC | 0.0213 |

| Sequence | PBM E-score |
| --- | --- |
| CAGGGTTA | -0.283 |
| AGACATCA | -0.176 |
| CGACGTCC | -0.0918 |
| ATAGCTAC | 0.0547 |
| ACGACGCT | -0.155 |
| GCTCGAGA | -0.13 |
| CCCGTTAA | -0.176 |
| ACAATAAA | 0.135 |
| AACATTGG | -0.112 |
| TCACTGAA | 0.0412 |
| AAAACTCG | 0.199 |
| CATCTCTC | -0.124 |
| CACCTCGA | 0.182 |
| ACTCAAAA | 0.0628 |
| AGTCGTTC | -0.0566 |
| AGATGGAT | -0.146 |
| ATTAGAGG | -0.173 |
| CCTGCGCC | -0.228 |
| ATTCTTAC | 0.245 |
| CCCAGGTC | -0.312 |
| ATATAGAC | 0.19 |
| CACCGTAA | 0.0107 |
| CCCCAGAC | -0.282 |
| ACGCAACG | 0.187 |
| GGAAATAC | 0.195 |

| Sequence | PBM E-score |
| --- | --- |
| AGCGTTAC | -0.07 |
| AGAACGGA | 0.217 |
| AGTCCGAC | 0.477 |
| ATGGAGAA | 0.108 |
| ATCCGTAG | -0.0423 |
| TAAGATGA | 0.00586 |
| CTGCAATC | 0.0569 |
| GACAATAC | 0.163 |
| CTGTCAGA | -0.137 |
| CCTCGACA | -0.288 |
| CTACAGTA | -0.0655 |
| CTCAGACC | -0.0343 |
| AGTAATAT | 0.312 |
| CAGCCACC | -0.206 |
| GTGAGGTA | -0.0275 |
| CAGGGCTC | -0.171 |
| CACAAAAG | -0.085 |
| CTAATCGC | 0.00398 |
| CGAGAAAA | 0.188 |
| AAGAAGCA | 0.0425 |
| GCGCTACC | -0.213 |
| TTATCAAA | 0.256 |
| AAGACGCT | -0.26 |
| GCGAGGCA | -0.0631 |
| TATGAACA | 0.0917 |

| Sequence | PBM E-score |
| --- | --- |
| AAATGGAA | -0.0215 |
| ATTTAATA | 0.265 |
| CCGCAAGG | 0.00491 |
| ATTGCGGA | 0.25 |
| GAGTCCAC | -0.108 |
| CTAACGCA | -0.0867 |
| CGTAGCGA | 0.0233 |
| ACTCGAAT | 0.0159 |
| CAGCTTCA | -0.0395 |
| TCAGCGAA | 0.039 |
| CACACGAG | -0.284 |
| ATTTTGTA | 0.318 |
| AAACACGA | 0.227 |
| ATTCTCCG | 0.409 |
| AGATTATA | 0.0862 |
| CGCGACCA | -0.098 |
| GGTGGGTA | -0.0653 |
| ATCCTTCG | 0.0447 |
| CACGATTA | 0.0689 |
| AAAACTGA | 0.12 |
| AGTCTGAC | -0.143 |
| GATGGCAC | -0.208 |
| CTTGAAGC | -0.0614 |
| GAACTCAC | -0.0282 |
| ATAGGCGC | -0.101 |

| Sequence | PBM E-score |
| --- | --- |
| AGGAAAGC | -0.00919 |
| ACTAAAGT | 0.0611 |
| CGACAATC | 0.0754 |
| ATTCCAGC | -0.0722 |
| ACCCCTAG | -0.248 |
| ACGTATAA | 0.209 |
| CCCCGTCA | -0.197 |
| GAATTTGC | 0.173 |
| GGTGAGAC | -0.123 |
| CGGATGCA | -0.0215 |
| AGTCTTCC | -0.0553 |
| AACTGCAA | -0.0121 |
| ATGTTCCC | -0.213 |
| AGCACCAC | -0.312 |
| CATAAAGA | 0.209 |
| CTACGAAA | -0.116 |
| AATACCGT | 0.0591 |
| CTCTGACA | -0.112 |
| TCAGTACA | 0.033 |
| GCCGTGCC | -0.175 |
| CCCGGACC | 0.339 |
| CCGCGGAA | 0.253 |
| CACCGTGC | -0.263 |
| GAATCGGA | 0.376 |
| CTAGTCCA | -0.129 |

| Sequence | PBM E-score |
| --- | --- |
| CCCGACCG | -0.177 |
| CGAAGGGA | -0.13 |
| CGGTCTCC | 0.0266 |
| ACGATACG | -0.0892 |
| GGCAACGA | 0.0792 |
| CAAAGTGA | 0.0886 |
| CAACCCCA | -0.156 |
| CAGACACC | -0.104 |
| AGTTTGAT | 0.218 |
| ATGTCAAA | 0.126 |
| AAACACTT | 0.00605 |
| GACACTTA | -0.13 |
| GCTGCAGA | -0.0669 |
| AACGCGAG | 0.0583 |
| TAGGATCA | -0.108 |
| ACACGCAA | -0.0558 |
| GCAACCCA | -0.123 |
| GCCCCGGA | 0.29 |
| AGTGATCA | -0.0769 |
| AGACGTAT | 0.0319 |
| GGCGCACC | -0.271 |
| CCAAACCA | 0.0126 |
| AACTGCAG | -0.0165 |
| GTTATTAA | 0.295 |
| ACCCGTAC | -0.0439 |

| Sequence | PBM E-score |
| --- | --- |
| ATAAAGGC | 0.0697 |
| AGAACTCA | 0.0672 |
| ACTGACCC | -0.139 |
| CGGGTCTA | -0.0694 |
| AGTAGTGG | 0.039 |
| AATTAGAA | 0.219 |
| ACATGTCA | -0.0445 |
| AGGCGGGC | -0.246 |
| ATAAGGGA | 0.0236 |
| ATCGGAGC | 0.358 |
| AGGCTCGC | -0.288 |
| AACGTAAT | 0.177 |
| CGAAGGAA | 0.0839 |
| CCATTGAC | -0.1 |
| AGATTAAA | 0.324 |
| CCAGCCGC | -0.051 |
| ATTCTAAA | 0.158 |
| AGAGTACG | -0.00068 |
| TCCGTTCA | 0.241 |
| GAGGGACA | -0.242 |
| ATGTTAAT | 0.164 |
| CATGCTCG | -0.103 |
| ATGGGACG | -0.262 |
| CAAAGGGC | -0.136 |
| GTAGTATA | 0.163 |

| Sequence | PBM E-score |
| --- | --- |
| AAATGGCA | 0.069 |
| AAGGCTTA | -0.0684 |
| ACCGCATG | -0.189 |
| AGGCGCCG | -0.128 |
| AGTGTTAC | 0.15 |
| ACGCTTGA | -0.0408 |
| CTTTTAAA | 0.0908 |
| CCGCAGCA | 0.0571 |
| ATTACCTG | 0.14 |
| AAGGCCGT | -0.0495 |
| CCACGTTA | 0.0293 |
| ATAGGACA | -0.121 |
| AAATGGGG | -0.226 |
| ACTATCCA | -0.00215 |
| CTAGAGTA | 0.114 |
| AATTCGTC | 0.147 |
| CTCCCTCA | -0.276 |
| AACCCTTC | 0.113 |
| ATCAATAG | 0.115 |
